“And” between values parts separate entries of the source, which are not always exact repeats. Equal entries are not always repeated. The whole screen tested about 110,000 compounds, of which about 230 (0.21%) showed an effect of 50% or more. The list shows a part of the results. Where a SMILES comes first, the peptide text is derived from it. The star is where a group is joined. Cbz = O=C(OCc1ccccc1)*
Target: DPAP1 (Plasmodium falciparum, UniProt Q8IIJ9)
Experiment: primary screen, percent inhibition; read by cleavage of a fluorogenic dipeptide substrate; higher = more effect of the substance
Set-up: species or system P. falciparum D10 trophozoite lysates; single well
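Note: 30 min substrate incubation versus DMSO and 10 µM JCP410 controls.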

Chain of DPAP1 (Q8IIJ9 whole entry, looked up): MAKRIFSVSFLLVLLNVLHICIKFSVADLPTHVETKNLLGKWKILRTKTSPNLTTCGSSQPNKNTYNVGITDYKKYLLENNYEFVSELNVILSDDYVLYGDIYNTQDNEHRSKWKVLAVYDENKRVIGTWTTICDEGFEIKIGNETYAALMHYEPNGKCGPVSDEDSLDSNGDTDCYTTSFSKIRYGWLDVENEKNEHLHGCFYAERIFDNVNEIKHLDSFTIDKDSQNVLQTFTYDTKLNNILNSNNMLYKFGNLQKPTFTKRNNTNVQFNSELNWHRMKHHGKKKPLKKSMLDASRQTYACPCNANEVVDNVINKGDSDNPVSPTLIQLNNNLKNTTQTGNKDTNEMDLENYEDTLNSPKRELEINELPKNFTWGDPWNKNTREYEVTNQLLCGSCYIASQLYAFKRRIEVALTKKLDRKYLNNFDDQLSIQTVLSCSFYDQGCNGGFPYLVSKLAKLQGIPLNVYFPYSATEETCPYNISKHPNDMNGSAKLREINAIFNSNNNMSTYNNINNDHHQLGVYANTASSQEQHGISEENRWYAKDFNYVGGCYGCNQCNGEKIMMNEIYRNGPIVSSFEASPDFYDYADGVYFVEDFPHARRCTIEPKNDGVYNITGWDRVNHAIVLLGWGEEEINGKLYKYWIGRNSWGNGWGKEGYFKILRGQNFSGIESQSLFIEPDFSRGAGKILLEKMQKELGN

Row | SMILES | % Inhibition @ 10 uM
1 | CCC(C(=O)NCc1cn2cccc(C)c2n1)c1ccccc1 (stereo not shown) | -1.72%
2 | CC[C@@H](C)[C@H](NC(=O)c1cccc(CNC(=O)OC(C)(C)C)c1)C(=O)N[C@@H](CCc1ccccc1)C(=O)CO | 1.61%
3 | COc1cc(C(C)=O)ccc1OCC(O)Cn1nc(C)c(Br)c1C (stereo not shown) | 0.755%
4 | CCCn1c2c(c(O)c(C(=O)Nc3ccc(C)cn3)c1=O)CCCC2 | 4.35%
5 | Cc1ccc(C)c(C(=O)C2=C(O)C(=O)N(CCCn3ccnc3)C2c2cccc(Cl)c2)c1 (stereo not shown) | -0.132%
6 | CCn1cc(C(=O)N2CCN(C)CC2)c2cc(OC)c(OC)cc2c1=O | -4.86%
7 | CC1(C)CC(C)(c2ccc(O)cc2O)N(c2ccccc2)C(=S)N1 (stereo not shown) | -4.21%
8 | CCn1c(C(=O)NC2CCCCC2C)cc2sc(Cl)cc21 (stereo not shown) | -1.37%
9 | COc1ccc(C2CC(c3cccs3)=NN2C(=O)CCCC(=O)O)cc1OC (stereo not shown) | 4.67%
10 | O=C(c1ccccc1Cl)N1CCCCC1 | -5.65%
11 | CN(C)c1ccc(C2C(C(=O)c3ccc(Br)cc3)=C(O)C(=O)N2c2cccnc2)cc1 (stereo not shown) | -1.77%
12 | CN1CCCN(C2CC3CCC2C3)CC1 (stereo not shown) | 2.1%
13 | CC1=CC(=C2C(=O)NC(=O)NC2=O)C=C(C(F)(F)F)N1CCc1ccccc1 | 25.7%
14 | COCc1cc(C)nc(SCCN(C)C)c1C#N | -1.24%
15 | C=CCC1(C#N)C(=S)N=C2CC(C)(C)CC(O)=C2C1c1ccc(Br)cc1 (stereo not shown) | 3.01%
16 | CC1=C(C)CC(C(=O)Nc2ccc(C(C)C)cc2)C(C(=O)O)C1 (stereo not shown) | 5.66%
17 | O=C(NCC12CC3CC(CC(C3)C1)C2)c1cnn2c(C(F)(F)F)cc(-c3ccco3)nc12 | -0.834%
18 | O=C(Cn1c(=O)n(Cc2ccccc2)c(=O)c2c3c(sc21)CCC3)c1ccc(F)cc1 | -1.92%
19 | Cc1c(Br)c(C(F)(F)F)nn1CC(=O)Nc1sc2c(c1C(N)=O)CCCCC2 | -0.171%
20 | CC1=C(C(=O)OCCc2ccccc2)C(c2ccsc2)NC(=O)N1C (stereo not shown) | 11.9%
21 | COc1cc(N2C(=O)c3ccccc3C2=O)c2ncccc2c1OC | 3.86%
22 | O=C(CCN1CCCCCC1)Nc1ccc(Cl)cc1 | -2.37%
23 | COc1cccc(CN2CC3=C(C2=O)C(c2ccccc2)NC(=O)N3)c1 (stereo not shown) | -1.97%
24 | c1cc2c(cc1CCNC1CCCCCC1)OCO2 | -3.49%
25 | N#CC(=C\c1[nH]c2ccccc2c1O)/C(N)=N/CCc1ccccc1 | -3.06%
26 | CC(C)CC(NC(=O)C1CCCN1C(=O)CNC(=O)OCc1ccccc1)C(=O)O (stereo not drawn) (Cbz-Gly-Pro-Leu-OH; configuration not given here) | 3.25%

Row | SMILES | % Inhibition @ 10 uM
27 | Cc1ccccc1NC(=O)CSc1nc2ccccc2n1C | -5.3%
28 | CC(C)Oc1ccc(C2CC(=O)NC2=O)cc1 (stereo not shown) | 2.51%
29 | Nc1nc2c(S(=O)(=O)c3cccc(Cl)c3)nnn2c2ccsc12 | -8.43%
30 | Cc1cc(=O)n2nc(N3CCC(C(=O)NCc4cccc(Cl)c4)CC3)sc2n1 | -5.63%
31 | N#Cc1sc2nc(N)c(C#N)c(-c3ccccc3)c2c1N | -2.39%
32 | FC(F)(F)c1cccc(Nc2nc3nonc3nc2Nc2ccc(Br)cc2)c1 | 4.54%
33 | CCOC(=O)c1cnc2c(ccc3ccccc32)c1O | -2.48%
34 | CC1CCC(N2CCN(C/C=C/c3ccccc3)CC2)C1 (stereo not shown) | -3.8%
35 | Oc1cc(Nc2ccc(Cl)c(Cl)c2)nc(O)n1 | -2.71%
36 | CCCCCSc1nc2c(c(=O)[nH]c(=O)n2C)n1Cc1ccccc1 | 0.385%
37 | CC(=O)Nc1ccc(CN2CCN(C)CC2)cc1 | -3.65%
38 | Cc1cc2sc3ccccc3c(=O)c2cc1O | 0.962%
39 | O=C1N/C(=C/c2cccs2)C(=O)N1Cc1ccc(F)cc1 | 0.316%
40 | CCN(CC)CCC/N=C/c1c(O)[nH]c2ccccc12 | 7.76% and 2.55%
41 | COc1ccc(-c2noc(/C=C/c3ccccc3Cl)n2)cc1OC | 0.331%
42 | Cc1ccc(C(=O)CCC(=O)NC2=NCCS2)cc1 | -3.21%
43 | O=C(NCCN1CCOCC1)C1CCN(c2nc3ccccc3n3cccc23)CC1 | -5.37%
44 | Cc1c(Cl)cccc1NC(=O)/C=C/c1ccc2c(c1)OCO2 | 5.06%
45 | Brc1ccccc1CN1CCN(Cc2ccccc2)CC1 | -3.71%
46 | CC(C)N(C(=O)c1ccc(C(=O)N2CCCCC2)cc1)C(C)C | -6.42%
47 | COc1ccc2c(c1)CCc1c(C(=O)NC(C)c3ccccc3)noc1-2 (stereo not shown) | -3.12%
48 | C#CCn1cnc2c(cnn2-c2ccc(Cl)cc2)c1=O | 1.63%
49 | CC1CCCN(C(=O)Cn2ncc3c2-c2ccccc2OC3)C1 (stereo not shown) | -5.27%
50 | O=C(COc1ccc(S(=O)(=O)NCc2ccccc2)cc1)Nc1ccc2c(c1)OCCO2 | -0.536%
51 | CCC(C(=O)NCc1ccc2c(c1)OCO2)n1nc(C)c2c(C)n(-c3ccccc3)nc2c1=O (stereo not shown) | -6.33%
52 | Cc1nn(Cc2ccccc2)c(C)c1NC(=O)c1cc2n(n1)C(C(F)(F)F)CC(c1ccccc1)N2 (stereo not shown) | 2.32%

Row | SMILES | % Inhibition @ 10 uM
53 | COc1ccc(OC)c(N(CC(=O)Nc2ccccc2)S(=O)(=O)c2ccccc2)c1 | -6.62%
54 | O=C(CSc1cn(CC(=O)N2CCOCC2)c2ccccc12)NCc1ccco1 | 1.66%
55 | CCc1ccc(-c2nc(CN3CCC(C(=O)NCc4ccccc4Cl)CC3)c(C)o2)cc1 | -6.64%
56 | CCc1ccc(C2=NN(CCC(=O)NC3CCC(C)CC3)C(=O)CC2)cc1 (stereo not shown) | -6.4%
57 | CC(C)OCC(O)CSc1nc2ccccc2s1 (stereo not shown) | 3.35%
58 | CC(C)NC(=O)CNC(=O)c1cccs1 | -4.97%
59 | c1ccc(-c2cnc(-c3cccs3)o2)cc1 | -4.04%
60 | NC1=NC(=O)C(Cc2cccc(Cl)c2)S1 (stereo not shown) | 1.43%
61 | Cc1ccc2nc(N3CCN(Cc4ccccc4)CC3)c3nnnn3c2c1 | -0.414%
62 | CCN1CCC(N2CCSCC2)CC1 | -1.5%
63 | CCOC(=O)C1=C(C)N=C(C)/C(=C(/O)OCC)C1C(=O)O (stereo not shown) | -3.48%
64 | CCCC(=O)c1c(NCc2ccccc2)cc(C)oc1=O | 4.57%
65 | CCOC(=O)c1c(S(=O)(=O)N2CCN(Cc3ccccc3)CC2)c(C)n(C)c1C | 7.23%
66 | CCOc1ccccc1-c1noc(-c2ccco2)n1 | -6.64%
67 | COc1cccc(/C=C(\C#N)c2nc(-c3ccc(Cl)cc3)cs2)c1 | -2.6%
68 | COc1cc(NC(=O)c2ccc(OC(C)C)cc2)ccc1NC(=O)C(C)C | -8.59%
69 | CCCSc1nc(O)c2cnn(-c3ccc(C)c(C)c3)c2n1 | 1.9%
70 | CN(C)c1ccc2c(c1)OC(N)=C(C#N)C2c1cccc2ccccc12 (stereo not shown) | 6.06%
71 | COc1cc(SC)ccc1C(=O)Nc1ccccc1 | -2.64%
72 | O=C1CCCC/C1=C/Nc1cccc(C(F)(F)F)c1 | 7.2%
73 | O=C(NCc1cccnc1)c1ccc(CSCc2ccccc2Cl)o1 | -0.0542%
74 | Cc1ccc(N2C(=O)CC(N3CCc4ccccc4C3)C2=O)cc1Cl (stereo not shown) | -1.98%
75 | CCCNC(=O)CCc1nc(-c2cc(OC)c(OC)c(OC)c2)no1 | 2.02%
76 | CC(C)NC(=O)C(C)(C)Oc1ccc(Cl)cc1 | -1.24%
77 | CC(=O)N1CCC2(CC1)CC(=O)c1cc(OCC(=O)N3CCC4(CC3)OCCO4)ccc1O2 | -1.28%
78 | Cc1nc(N2CCOCC2)c2c(C)c(C(=O)NCc3ccc(F)cc3)sc2n1 | 0.238%

Row | SMILES | % Inhibition @ 10 uM
79 | Cc1nc2c(C)c(-c3ccccc3)nn2c(O)c1Cl | 1.42%
80 | O=C(CCC1=Nc2ncc(Br)cc2S(=O)(=O)N1)NCc1ccccn1 | -8.56%
81 | CCCn1c2ccccc2c2cnn(CC(=O)N3CCN(C)CC3)c(=O)c21 | 3.27%
82 | CCn1c(=N)n(CCOc2ccccc2)c2ccccc21 | -1.59%
83 | COC(C(=O)Nc1ccc(C)c(C)c1)c1ccccc1 (stereo not shown) | -2.97%
84 | Cc1cccc(C(=O)Nc2ccc(C)c(F)c2)c1 | 2.13%
85 | N#CCNC(=O)[C@H](CC1CCC(F)(F)CC1)NC(=O)c1ccccc1 | -5.21%
86 | CN1CCC(N2CCCC2CO)CC1 (stereo not shown) | -1.75%
87 | O/N=C(\Cc1ccccc1)c1c[nH]c2ccccc12 | -0.744%
88 | COc1cccc(S(=O)(=O)Nc2ccc(C(=O)Nc3ccc(Br)cc3F)cc2)c1 | 1.84%
89 | CCOCCCNCc1c(C(=O)O)c(C)n(Cc2cc(C)ccc2C)c1C | -0.23%
90 | C=CCNC(=O)Cn1nc(-c2ccccc2)ccc1=O | 0.514%
91 | O=C(NCC1CCCO1)c1cnc(N2CCCC2)nc1 (stereo not shown) | 3.55%
92 | O=C(c1cccc(F)c1)N1CCN(Cc2ccccn2)CC1 | 11.5%
93 | Cc1ccnc(NS(=O)(=O)c2ccc3ccccc3c2)c1 | -0.849%
94 | CN1CCCN(Cc2ccccc2)CC1 | 4.81%
95 | CCOC(=O)N1CCN(C(=O)CN(c2ccccc2Cl)S(C)(=O)=O)CC1 | -0.641%
96 | O=c1oc2ccccc2c(O)c1Sc1ccccc1 | -1.76%
97 | CCOc1c(S)cnn(-c2ccccc2)c1=O | 13%
98 | COC(=O)N(C)CC1Cc2ccccc2O1 (stereo not shown) | -2.36%
99 | CC(=O)c1sc(Nc2nc(NC(C)C)nc(NC(C)C)n2)nc1C | -2.14%
100 | O=C(NCC1CCCO1)C1c2ccccc2C(=O)N1CCc1ccccc1 (stereo not shown) | -1.29%
101 | O=C(Cc1ccccc1)Nc1cccc(C(=O)Nc2nccs2)c1 | -3.09%
102 | CCN(Cc1ccc(OC)cc1)S(=O)(=O)c1nnc(NC(=O)c2cccc(F)c2)s1 | -1.95%
103 | Cc1nc2ccccn2c1C(=O)NC(C)c1ccccc1 (stereo not shown) | -0.0648%
